Experiment [1] deals with HSkMC (human skeletal muscle cells). Kind of experiment: cytotoxicity call (relative viability < 0.9). The settings on record: 10 µM.
Experiment [2] relates to HepG2. The experiment in a line: cytotoxicity call (relative viability < 0.9). The settings on record: 10 µM.
In experiment [3] the test system is S. aureus RN4220. The experiment in a line: growth inhibition call (relative growth <= 0.2). The note with it: 50 µM.

This is an account of results in the antibiotic and cytotoxicity screens of Wong et al. (2023).

Some of the results follow.

Take `C[C@@H]1CN([C@@H](C)CO)C(=O)c2cc(NC(=O)NC3CCCCC3)ccc2O[C@@H](C)CCCCO[C@@H]1CN(C)S(=O)(=O)c1ccc(F)cc1`: the cytotoxicity call in experiment [1] and in experiment [2] was “inactive” throughout. In experiment [3], the growth inhibition call was “inactive”.

As to `C[C@H](CO)N1C[C@H](C)[C@H](CN(C)C(=O)c2cccc(F)c2)Oc2cc(-c3ccncc3)ccc2S1(=O)=O`, the cytotoxicity call in experiment [1] and in experiment [2] was “inactive” in each case. Besides, in experiment [3], the growth inhibition call is “inactive”.

Consider `C[C@@H]1CCCCO[C@@H](CN(C)CC2CCCCC2)[C@H](C)CN([C@@H](C)CO)C(=O)c2cc(NC(=O)Nc3ccc(C(F)(F)F)cc3)ccc2O1`, for which the cytotoxicity call in experiment [1] and in experiment [2] was “active” in each case. For the same compound, the growth inhibition call in experiment [3] was “inactive”.

`C[C@H]1CN([C@@H](C)CO)C(=O)c2cccc(NC(=O)c3ccncc3)c2O[C@@H]1CN(C)S(=O)(=O)c1ccc(F)cc1`: the cytotoxicity call in experiment [1] and in experiment [2] was “inactive” in each case. Moreover, the growth inhibition call in experiment [3] is “inactive”.

As to `CO[C@@H]1CN(C)C(=O)c2cc(NS(C)(=O)=O)ccc2OC[C@@H](C)N(C(=O)C2CCOCC2)C[C@H]1C`, the cytotoxicity call in experiment [1] and in experiment [2] was “inactive” throughout. Also, the growth inhibition call in experiment [3] is “inactive”.

Turning to `CN(C)CCCNC(=O)C[C@H]1C=C[C@H](NC(=O)Cc2cccnc2)[C@@H](CO)O1`, the cytotoxicity call in experiment [1] and in experiment [2] was “inactive” throughout. Further, the growth inhibition call in experiment [3] was “inactive”.

For `COc1cccc(C#Cc2ccc3c(c2)O[C@@H](CN(C)C(C)=O)[C@@H](C)CN([C@H](C)CO)S3(=O)=O)c1`, the cytotoxicity call in experiment [1] and in experiment [2] was “inactive” in each case. In experiment [3], the growth inhibition call was “inactive”.

Regarding `Cc1ccc(S(=O)(=O)Nc2cccc3c2O[C@@H](CN(C)Cc2ccc(Cl)c(Cl)c2)[C@@H](C)CN([C@H](C)CO)C3=O)cc1`, the cytotoxicity call in experiment [1] and in experiment [2] was “inactive” each time. The growth inhibition call in experiment [3] is “inactive”.

Consider `C[C@@H]1CN([C@H](C)CO)C(=O)c2cc(C#CC3CC3)cnc2O[C@@H]1CN(C)S(=O)(=O)c1cccc(F)c1`, for which the cytotoxicity call in experiment [1] and in experiment [2] was “inactive” throughout. Besides, in experiment [3], the growth inhibition call is “inactive”.

Consider `C[C@@H]1CCCCO[C@H](CN(C)C(=O)Nc2ccc3c(c2)OCO3)[C@@H](C)CN([C@@H](C)CO)C(=O)c2cc(NC(=O)c3ccncc3)ccc2O1`, for which the cytotoxicity call in experiment [1] and in experiment [2] was “inactive” throughout. In addition, the growth inhibition call in experiment [3] is “inactive”.

Take `C[C@@H]1CN([C@H](C)CO)C(=O)Cc2cc(NC(=O)Nc3ccccc3)ccc2O[C@H]1CN(C)C(=O)Nc1ccc(C(F)(F)F)cc1`: the cytotoxicity call in experiment [1] and in experiment [2] was “inactive” throughout. Moreover, the growth inhibition call in experiment [3] was “inactive”.

`C[C@@H]1CN([C@H](C)CO)C(=O)c2cccc(NS(C)(=O)=O)c2O[C@H]1CN(C)Cc1ccc2c(c1)OCO2`: the cytotoxicity call in experiment [1] and in experiment [2] was “inactive” throughout. The growth inhibition call in experiment [3] was “inactive”.

As to `COc1ccc(S(=O)(=O)Nc2ccc3c(c2)C(=O)N([C@H](C)CO)C[C@H](C)[C@H](CN(C)C(=O)CCC(F)(F)F)OCCCC[C@H](C)O3)cc1`, the cytotoxicity call in experiment [1] and in experiment [2] was “inactive” in each case. The growth inhibition call in experiment [3] was “inactive”.

Consider `CC(=O)n1cc([C@@H]2C=C(C(=O)N3CCOCC3)O[C@H](OCCCCOC(=O)NCCCCCC(=O)NO)C2)c2ccccc21`, for which the cytotoxicity call in experiment [1] and in experiment [2] was “inactive” in each case. Besides, the growth inhibition call in experiment [3] is “inactive”.

`C[C@@H]1CCCCO[C@@H](CN(C)Cc2ccc(Cl)c(Cl)c2)[C@H](C)CN([C@H](C)CO)C(=O)c2cc(NS(=O)(=O)c3ccccc3)ccc2O1`: the cytotoxicity call in experiment [1] and in experiment [2] was “active” each time. The growth inhibition call in experiment [3] is “inactive”.

Regarding `C[C@H](CO)N1C[C@H](C)[C@H](CN(C)C(=O)Nc2ccc(C(F)(F)F)cc2)Oc2ccc(NC(=O)Cn3cnnn3)cc2C1=O`, the cytotoxicity call in experiment [1] and in experiment [2] was “inactive” in each case. For the same compound, the growth inhibition call in experiment [3] was “inactive”.

`COc1ccc(NC(=O)Nc2ccc3c(c2)C(=O)N([C@@H](C)CO)C[C@H](C)[C@@H](CN(C)S(=O)(=O)c2ccccc2)OCCCC[C@@H](C)O3)cc1`: the cytotoxicity call in experiment [1] and in experiment [2] was “inactive” throughout. Further, in experiment [3], the growth inhibition call was “inactive”.

For the compound `C[C@@H]1CCCCO[C@@H](CN(C)C(=O)NC2CCCCC2)[C@H](C)CN([C@@H](C)CO)C(=O)c2cc(NC(=O)Nc3ccccc3)ccc2O1`, the cytotoxicity call in experiment [1] and in experiment [2] was “inactive” in each case. The growth inhibition call in experiment [3] is “inactive”.

With `C[C@H](CO)N1C[C@H](C)[C@@H](CN(C)Cc2ccncc2)Oc2ccc(NS(=O)(=O)c3ccc(F)cc3)cc2C1=O`, the cytotoxicity call in experiment [1] and in experiment [2] was “inactive” in each case. Besides, the growth inhibition call in experiment [3] is “inactive”.

For the compound `C[C@@H]1CN([C@@H](C)CO)C(=O)c2cc(NC(=O)CCC(F)(F)F)ccc2O[C@@H](C)CCCCO[C@@H]1CN(C)C(=O)c1ccccc1`, the cytotoxicity call in experiment [1] and in experiment [2] was “inactive” in each case. The growth inhibition call in experiment [3] is “inactive”.

`C[C@@H]1CN([C@H](C)CO)C(=O)c2cc(NC(=O)Nc3ccc4c(c3)OCO4)ccc2O[C@@H](C)CCCCO[C@@H]1CN(C)C(=O)Cc1ccccc1`: the cytotoxicity call in experiment [1] and in experiment [2] was “inactive” throughout. Moreover, the growth inhibition call in experiment [3] is “inactive”.

With `C[Se]CCC(N)C(=O)O` (stereo not drawn), the cytotoxicity call in experiment [1] and in experiment [2] was “inactive” throughout. In experiment [3], the growth inhibition call was “inactive”.

Turning to `C[C@H]1CN([C@@H](C)CO)C(=O)Cc2cc(NS(=O)(=O)c3ccc(Cl)cc3)ccc2O[C@@H]1CN(C)C(=O)Nc1ccc(C(F)(F)F)cc1`, the cytotoxicity call in experiment [1] and in experiment [2] was “inactive” throughout. Also, the growth inhibition call in experiment [3] was “inactive”.

As to `C[C@H]1CN([C@@H](C)CO)C(=O)Cc2cc(NC(=O)CCC(F)(F)F)ccc2O[C@H]1CN(C)S(C)(=O)=O`, the cytotoxicity call in experiment [1] and in experiment [2] was “inactive” each time. In experiment [3], the growth inhibition call was “inactive”.

Regarding `O=C(CCCc1ccccc1)OCC(COC(=O)CCCc1ccccc1)OC(=O)CCCc1ccccc1`, the cytotoxicity call in experiment [1] and in experiment [2] was “inactive” in each case. The growth inhibition call in experiment [3] is “inactive”.

In the case of `CO[C@H]1CN(C)C(=O)c2cc(NS(=O)(=O)CC(F)(F)F)ccc2OC[C@H](C)N(C(=O)c2ccc3c(c2)OCO3)C[C@H]1C`, the cytotoxicity call in experiment [1] and in experiment [2] was “inactive” throughout. Besides, the growth inhibition call in experiment [3] is “inactive”.
